Measurements as given in patent publication US12145987B2, “Method for depleting cytotoxic T cells using an anti-LAG-3 antibody composition” (Daiichi Sankyo Company, Limited, priority 2017, dated 2024).

T1: human LAG-3 expressed on 293T-lacZ cells (Homo sapiens, UniProt P18627)
T1 construct: An expression plasmid of the full-length human LAG-3 was introduced into the 293T cells stably expressing β-galactosidase; expressed in transfected cells; host or cells: 293T-lacZ cells (293T stably expressing β-galactosidase), transient transfection
T1 sequence (P18627 23-525): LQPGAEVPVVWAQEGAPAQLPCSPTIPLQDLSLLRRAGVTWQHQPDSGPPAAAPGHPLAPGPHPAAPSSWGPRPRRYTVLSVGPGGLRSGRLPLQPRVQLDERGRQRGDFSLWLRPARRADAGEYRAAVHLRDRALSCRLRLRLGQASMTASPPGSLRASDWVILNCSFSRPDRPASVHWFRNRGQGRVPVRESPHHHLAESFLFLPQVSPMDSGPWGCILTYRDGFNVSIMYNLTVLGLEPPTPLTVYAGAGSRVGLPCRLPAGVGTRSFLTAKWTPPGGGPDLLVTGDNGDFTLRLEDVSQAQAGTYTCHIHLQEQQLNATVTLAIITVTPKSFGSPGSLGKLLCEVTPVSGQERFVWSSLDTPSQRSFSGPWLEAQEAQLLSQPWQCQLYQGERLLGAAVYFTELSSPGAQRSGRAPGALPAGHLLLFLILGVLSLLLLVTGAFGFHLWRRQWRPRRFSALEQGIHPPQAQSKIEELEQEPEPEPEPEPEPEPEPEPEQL

B1: hLA212_H3/L5: humanized antibody; heavy chain positions 20 to 470 of SEQ ID No: 30, light chain positions 21 to 234 of SEQ ID No: 40 (antibody)
heavy: EVQLVESGGGLVQPGGSLRLSCAASGFTYRSYVMAWVRQAPGKGLEWVASISTGGGNTYYRDSVKGRFTISRDNAKNTLYLQMDSLRAEDTAVYYCAEDMSNSGYGLFDYWGQGTLVTVSSASTKGPSVFPLAPSSKSTSGGTAALGCLVKDYFPEPVTVSWNSGALTSGVHTFPAVLQSSGLYSLSSVVTVPSSSLGTQTYICNVNHKPSNTKVDKRV[left out - human IgG1 Fc]
light: NIQMTQSPSSMSISVGDRVTMTCKAGQNVDNNIAWYQKKPGQSPKLLIYYASNRNTGVPDRFSGGGYGTDFTLTISSVQPEDAAFYYCQRISNSPYTFGQGTKLELKRTVAAPSVFIFPPSDEQLKSGTASVVCLLNNFYPREAKVQWKVDNALQSGNSQESVTEQDSKDSTYSLSSTLTLSKADYEKHKVYACEVTHQGLSSPVTKSFNRGEC
B2: hLA212_H2/L1: humanized antibody; heavy chain positions 20 to 470 of SEQ ID No: 28, light chain positions 21 to 234 of SEQ ID No: 32 (antibody)
heavy: B1 heavy with A49G, D84N
light: DIQMTQSPSSLSASVGDRVTITCKAGQNVDNNIAWYQQKPGQAPKLLIYYASNRNTGVPSRFSGSGSGTDFTLTISSLQPEDFATYYCQRISNSPYTFGQGTKVEIKRTVAAPSVFIFPPSDEQLKSGTASVVCLLNNFYPREAKVQWKVDNALQSGNSQESVTEQDSKDSTYSLSSTLTLSKADYEKHKVYACEVTHQGLSSPVTKSFNRGEC
B3: hLA212_H2/L2: humanized antibody; heavy chain positions 20 to 470 of SEQ ID No: 28, light chain positions 21 to 234 of SEQ ID No: 34 (antibody)
heavy: B1 heavy with A49G, D84N
light: B2 light with A43S, S67Y
B4: hLA212_H2/L3: humanized antibody; heavy chain positions 20 to 470 of SEQ ID No: 28, light chain positions 21 to 234 of SEQ ID No: 36 (antibody)
heavy: B1 heavy with A49G, D84N
light: B2 light with D1N, Q38K, A43S, S60D, S65G, S67Y, T85F
B5: hLA212_H2/L4: humanized antibody; heavy chain positions 20 to 470 of SEQ ID No: 28, light chain positions 21 to 234 of SEQ ID No: 38 (antibody)
heavy: B1 heavy with A49G, D84N
light: B1 light with N1D, D60S, G65S, Y67S, A83F, F85T
B6: hLA212_H2/L5: humanized antibody; heavy chain positions 20 to 470 of SEQ ID No: 28, light chain positions 21 to 234 of SEQ ID No: 40 (antibody)
heavy: B1 heavy with A49G, D84N
light: B1 light

Key:
[1] = test system: 293T-lacZ cells expressing human LAG-3; experiment: In vitro ADCC assay, human PBMC effector cells, β-galactosidase release; format: cell-based; details: target 293T-lacZ/hLAG-3 cells, effector human PBMCs, percentage of cells lysed
Description: 293FT cells (Invitrogen Corp.) were transfected with pLenti6/V5-GW/lacZ, and ViraPower™ Packaging Mix (Invitrogen Corp.) according to the accompanying protocols to prepare a recombinant lentivirus to express the β-galactosidase gene. 293T cells were infected by the obtained recombinant lentivirus according to the protocol of ViraPower Lentiviral Expression Systems (Invitrogen Corp). Virus-infected cells were selected using 10 μg/mL blasticidin (Invitrogen Corp.) to obtain a line stably expressing β-galactosidase. An expression plasmid of the full-length human LAG-3 was introduced into the 293T cells stably expressing β-galactosidase (hereinafter, referred to as 293T-lacZ) using Lipofectamine 2000 (manufactured by Invitrogen Corp.), and the cells were cultured for 1 day and then dissociated and recovered using TrypLExpress (manufactured by Invitrogen Corp). The cells were washed twice with phenol red-free RPMI1640 containing 5% FBS (hereinafter, referred to as a “medium for ADCC”). The number of live cells was counted by the trypan blue dye exclusion test. The cells were resuspended to 1×10^5 cells/ml in a medium for ADCC and used as target cells.
PBMCs were separated from human peripheral blood by Ficoll centrifugation, and a suspension adjusted to a live cell density of 1.2×10^6 cells/mL in a medium for ADCC was used as effector cells.
The ADCC activity of the purified rat anti-human LAG-3 antibodies rLA204, rLA212, rLA225, rLA869, and rLA1264 was investigated by the following method. To a 96-well U-bottom microplate containing 50 μL/well of the antibody solution, was added 50 μL/well of the target cells (which will be hereinafter referred to as 293T-lacZ/hLAG-3 cells) of Example 1)-5-1, followed by standing at 4° C. for 30 minutes. Then, 75 μL/well of effector cells prepared as in Example 1)-5-2 (which was however suspended to 2×10^6 cells/mL) was added thereto, followed by centrifugation at room temperature at 1200 rpm for 5 minutes, and thereafter the cells were cultured overnight under conditions of 37° C. and 5% CO2. On the next day, 50 μl of the supernatant was recovered into a black plate (manufactured by Corning Inc). A solution of β-Glo assay system (manufactured by Promega Corp.) was added thereto at 50 μl/well. The luminescence intensity was measured using a plate reader (ENVISION; manufactured by PerkinElmer, Inc). The percentage of cells lysed by ADCC activity was calculated according to the following formula. Percentage of cells lysed (%)=(A−B)/(C−B)×100 • A: Count of each sample well • B: Average of spontaneous release (wells without antibody added) counts (n=3)
When adding the antibody, 50 μL of a medium for ADCC was added thereto. Except for that, the same operation as in the sample well was performed.
C: Average of maximum release (wells containing target cells lysed with a surfactant) counts (n=3)
When adding the antibody and adding the effector cells, 50 μL and 75 μL of a medium for ADCC were added thereto respectively. For the assay, 175 μl of the β-Glo assay system solution was added to each well containing the target cells and mixed therewith. A 100 μl aliquot thereof was added to a black plate to carry out the assay.
The ADCC activity of the humanized anti-human LAG-3 antibodies (hLA212) was investigated by the method described in Example 2)-2.
The in vitro ADCC activity of the humanized anti-human LAG-3 antibody hLA212_H4/L2 was evaluated by the method described in Example 7)-2.

[2] = molecular target: T1, human LAG-3 expressed on 293T-lacZ cells; experiment: Binding activity to 293T-lacZ cells expressing human LAG-3 by flow cytometry; details: mean fluorescence intensity
Description: (§1) The expression plasmid pcDNA3.1-hLAG-3 of human LAG-3 was introduced into the 293T-lacZ cells (described in Example 1)-5-1), using Lipofectamine 2000 (manufactured by Invitrogen Corp.), and the cells were cultured for 1 day and thereafter used for flow cytometry. The flow cytometry was performed according to the method described in Example 1)-4, except that an Anti-Human IgG PE conjugate (manufactured by Jackson ImmunoResearch Laboratories, Inc.) diluted 200-fold with a FACS buffer was used as the secondary antibody.
as §1, with “human LAG-3-expression” for “expression”, “pcDNA3.1/hLAG-3” for “pcDNA3.1-hLAG-3 of human LAG-3”, “but” for “except that”
The binding of the humanized anti-human LAG-3 antibody hLA212_H4/L2 to human LAG-3-expressing 293T-lacZ cells was investigated by flow cytometry according to the method described in Example 7)-2.

Molecule	ADCC activity on cells expressing human LAG-3 [1]	binding activity to 293T-lacZ cells expressing human LAG-3 [2]
B1	concentration-dependent ADCC activity against the 293T-lacZ cells expressing human LAG-3, almost comparable to the human chimeric anti-LAG-3 antibody cLA212	concentration-dependent binding activity to the 293T-lacZ cells expressing human LAG-3, comparable to the human chimeric anti-LAG-3 antibody cLA212
B2	concentration-dependent ADCC activity against the 293T-lacZ cells expressing human LAG-3, almost comparable to the human chimeric anti-LAG-3 antibody cLA212	concentration-dependent binding activity to the 293T-lacZ cells expressing human LAG-3, comparable to the human chimeric anti-LAG-3 antibody cLA212
B3	concentration-dependent ADCC activity against the 293T-lacZ cells expressing human LAG-3, almost comparable to the human chimeric anti-LAG-3 antibody cLA212	concentration-dependent binding activity to the 293T-lacZ cells expressing human LAG-3, comparable to the human chimeric anti-LAG-3 antibody cLA212
B4	concentration-dependent ADCC activity against the 293T-lacZ cells expressing human LAG-3, almost comparable to the human chimeric anti-LAG-3 antibody cLA212	concentration-dependent binding activity to the 293T-lacZ cells expressing human LAG-3, comparable to the human chimeric anti-LAG-3 antibody cLA212
B5	concentration-dependent ADCC activity against the 293T-lacZ cells expressing human LAG-3, almost comparable to the human chimeric anti-LAG-3 antibody cLA212	concentration-dependent binding activity to the 293T-lacZ cells expressing human LAG-3, comparable to the human chimeric anti-LAG-3 antibody cLA212
B6	concentration-dependent ADCC activity against the 293T-lacZ cells expressing human LAG-3, almost comparable to the human chimeric anti-LAG-3 antibody cLA212	concentration-dependent binding activity to the 293T-lacZ cells expressing human LAG-3, comparable to the human chimeric anti-LAG-3 antibody cLA212

Changes are numbered by the printed parent chain.
